Sequences and labels used below:
T1: RBFOX1 RRM (Homo sapiens, UniProt Q9NWB1 109-208)
T1 sequence: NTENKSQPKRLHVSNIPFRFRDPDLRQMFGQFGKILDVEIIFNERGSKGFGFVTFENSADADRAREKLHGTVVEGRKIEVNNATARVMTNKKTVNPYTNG

B1: UGCAAGU (DNA:RNA)
RNA: GGGAGACCGGAAUUCAGAUUGUCCUGCAAGUUUAAAUCCCGUCGUAGCCACCA
DNA 1: CAATCTGAATTCCGGTCTCCC
DNA 2: TGGTGGCTACGACGGGATT
B2: UCAUGUG (DNA:RNA)
RNA: B1 RNA with G26C, C27A, A28U, A29G, G30U, U31G
DNA 1: CAATCTGAATTCCGGTCTCCC
DNA 2: TGGTGGCTACGACGGGATT
B3: UAGAGAA (DNA:RNA)
RNA: B1 RNA with G26A, C27G, A29G, G30A, U31A
DNA 1: CAATCTGAATTCCGGTCTCCC
DNA 2: TGGTGGCTACGACGGGATT
B4: AAAUCUG (DNA:RNA)
RNA: GGGAGACCGGAAUUCAGAUUGUCCAAAUCUGUUAAAUCCCGUCGUAGCCACCA
DNA 1: CAATCTGAATTCCGGTCTCCC
DNA 2: TGGTGGCTACGACGGGATT
B5: CGUAUGG (DNA:RNA)
RNA: B1 RNA with U25C, C27U, A29U, U31G
DNA 1: CAATCTGAATTCCGGTCTCCC
DNA 2: TGGTGGCTACGACGGGATT
B6: AUCCAGC (DNA:RNA)
RNA: B1 RNA with U25A, G26U, A28C, U31C
DNA 1: CAATCTGAATTCCGGTCTCCC
DNA 2: TGGTGGCTACGACGGGATT
B7: CAUGUCU (DNA:RNA)
RNA: B4 RNA with A25C, A27U, U28G, C29U, U30C, G31U
DNA 1: CAATCTGAATTCCGGTCTCCC
DNA 2: TGGTGGCTACGACGGGATT
B8: CCUACGG (DNA:RNA)
RNA: B4 RNA with A25C, A26C, A27U, U28A, U30G
DNA 1: CAATCTGAATTCCGGTCTCCC
DNA 2: TGGTGGCTACGACGGGATT
B9: GUCCAUA (DNA:RNA)
RNA: B1 RNA with U25G, G26U, A28C, G30U, U31A
DNA 1: CAATCTGAATTCCGGTCTCCC
DNA 2: TGGTGGCTACGACGGGATT
B10: CCAAAGA (DNA:RNA)
RNA: B1 RNA with U25C, G26C, C27A, U31A
DNA 1: CAATCTGAATTCCGGTCTCCC
DNA 2: TGGTGGCTACGACGGGATT
B11: UGCCUAG (DNA:RNA)
RNA: B1 RNA with A28C, A29U, G30A, U31G
DNA 1: CAATCTGAATTCCGGTCTCCC
DNA 2: TGGTGGCTACGACGGGATT
B12: CCUAAAG (DNA:RNA)
RNA: B1 RNA with U25C, G26C, C27U, G30A, U31G
DNA 1: CAATCTGAATTCCGGTCTCCC
DNA 2: TGGTGGCTACGACGGGATT
B13: GCGUUUG (DNA:RNA)
RNA: B4 RNA with A25G, A26C, A27G, C29U
DNA 1: CAATCTGAATTCCGGTCTCCC
DNA 2: TGGTGGCTACGACGGGATT
B14: CACUUGA (DNA:RNA)
RNA: B4 RNA with A25C, A27C, C29U, U30G, G31A
DNA 1: CAATCTGAATTCCGGTCTCCC
DNA 2: TGGTGGCTACGACGGGATT
B15: AUCUCAU (DNA:RNA)
RNA: B4 RNA with A26U, A27C, U30A, G31U
DNA 1: CAATCTGAATTCCGGTCTCCC
DNA 2: TGGTGGCTACGACGGGATT
B16: CCGCACG (DNA:RNA)
RNA: B4 RNA with A25C, A26C, A27G, U28C, C29A, U30C
DNA 1: CAATCTGAATTCCGGTCTCCC
DNA 2: TGGTGGCTACGACGGGATT
B17: CGUGAAG (DNA:RNA)
RNA: B1 RNA with U25C, C27U, A28G, G30A, U31G
DNA 1: CAATCTGAATTCCGGTCTCCC
DNA 2: TGGTGGCTACGACGGGATT
B18: ACAUCUG (DNA:RNA)
RNA: B4 RNA with A26C
DNA 1: CAATCTGAATTCCGGTCTCCC
DNA 2: TGGTGGCTACGACGGGATT
B19: UCUACAG (DNA:RNA)
RNA: B4 RNA with A25U, A26C, A27U, U28A, U30A
DNA 1: CAATCTGAATTCCGGTCTCCC
DNA 2: TGGTGGCTACGACGGGATT
B20: AUUGGAU (DNA:RNA)
RNA: B4 RNA with A26U, A27U, U28G, C29G, U30A, G31U
DNA 1: CAATCTGAATTCCGGTCTCCC
DNA 2: TGGTGGCTACGACGGGATT
B21: GCAGUAU (DNA:RNA)
RNA: B4 RNA with A25G, A26C, U28G, C29U, U30A, G31U
DNA 1: CAATCTGAATTCCGGTCTCCC
DNA 2: TGGTGGCTACGACGGGATT
B22: UUCGGAC (DNA:RNA)
RNA: B1 RNA with G26U, A28G, A29G, G30A, U31C
DNA 1: CAATCTGAATTCCGGTCTCCC
DNA 2: TGGTGGCTACGACGGGATT
B23: CACCGUG (DNA:RNA)
RNA: B4 RNA with A25C, A27C, U28C, C29G
DNA 1: CAATCTGAATTCCGGTCTCCC
DNA 2: TGGTGGCTACGACGGGATT
B24: UUAGGCA (DNA:RNA)
RNA: B4 RNA with A25U, A26U, U28G, C29G, U30C, G31A
DNA 1: CAATCTGAATTCCGGTCTCCC
DNA 2: TGGTGGCTACGACGGGATT
B25: CGAUCUU (DNA:RNA)
RNA: B4 RNA with A25C, A26G, G31U
DNA 1: CAATCTGAATTCCGGTCTCCC
DNA 2: TGGTGGCTACGACGGGATT
B26: GACGGGU (DNA:RNA)
RNA: B1 RNA with U25G, G26A, A28G, A29G
DNA 1: CAATCTGAATTCCGGTCTCCC
DNA 2: TGGTGGCTACGACGGGATT
B27: GGGAUGU (DNA:RNA)
RNA: B1 RNA with U25G, C27G, A29U
DNA 1: CAATCTGAATTCCGGTCTCCC
DNA 2: TGGTGGCTACGACGGGATT
B28: GGGAACU (DNA:RNA)
RNA: B1 RNA with U25G, C27G, G30C
DNA 1: CAATCTGAATTCCGGTCTCCC
DNA 2: TGGTGGCTACGACGGGATT
B29: CGGCCGC (DNA:RNA)
RNA: B1 RNA with U25C, C27G, A28C, A29C, U31C
DNA 1: CAATCTGAATTCCGGTCTCCC
DNA 2: TGGTGGCTACGACGGGATT
B30: CCCGCGG (DNA:RNA)
RNA: B4 RNA with A25C, A26C, A27C, U28G, U30G
DNA 1: CAATCTGAATTCCGGTCTCCC
DNA 2: TGGTGGCTACGACGGGATT
B31: CCUACCU (DNA:RNA)
RNA: B1 RNA with U25C, G26C, C27U, A29C, G30C
DNA 1: CAATCTGAATTCCGGTCTCCC
DNA 2: TGGTGGCTACGACGGGATT

Changes are numbered by the printed parent chain; changes in the protein carry UniProt numbers. Some of the results follow.

This test concerns the target T1, RBFOX1 RRM. In words: EMSA; HiTS-Eq, 1 nM pool, 10 min; buffer printed only for the single-RNA assays: 10 mM Tris pH 7.5, 150 mM NaCl, 3.4 mM EDTA, 0.001% NP-40, 30 C. The conditions noted are these: tags: His6 N-terminal (pET28a); label: 5' 32P. In short, it runs like this:
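Purified wild-type or mutant RbFox RRM at increasing concentrations was equilibrated with 1 nM of 5′-radiolabelled RNA carrying 7 randomized nucleotides for 10 min in 50 µL. Unbound RNA was separated by 8% native PAGE and sequenced. Relative association constants came from read-count changes of each RNA species compared with the control reaction, normalised to the cognate motif.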
For B1, the binding signal was 0.029 KA relative to UGCAUGU. B2: the binding signal is 0.0157 KA relative to UGCAUGU. To B3 belongs 0.00799 KA relative to UGCAUGU; to B4, 0.00625 KA relative to UGCAUGU; to B5, 0.0107 KA relative to UGCAUGU. To B6 belongs 0.00329 KA relative to UGCAUGU. In the case of B7 it was 0.00695 KA relative to UGCAUGU. As to B8, the binding signal is 0.00849 KA relative to UGCAUGU.

With B9, the binding signal is 0.00233 KA relative to UGCAUGU. To B10 belongs 0.00264 KA relative to UGCAUGU. To B11 belongs 0.0197 KA relative to UGCAUGU; to B12, 0.00242 KA relative to UGCAUGU; to B13, 0.0215 KA relative to UGCAUGU. Turning to B14, the binding signal is 0.00733 KA relative to UGCAUGU. Take B15: the binding signal was 0.00186 KA relative to UGCAUGU. To B16 belongs 0.0481 KA relative to UGCAUGU. Take B17: the binding signal is 0.00961 KA relative to UGCAUGU. To B18 belongs 0.0079 KA relative to UGCAUGU; to B19, 0.00704 KA relative to UGCAUGU.

With B20, the binding signal was 0.00616 KA relative to UGCAUGU. In the case of B21 it was 0.0053 KA relative to UGCAUGU. To B22 belongs 0.00324 KA relative to UGCAUGU. To B23 belongs 0.0057 KA relative to UGCAUGU; to B24, 0.0138 KA relative to UGCAUGU. For the molecule B25, the binding signal is 0.00766 KA relative to UGCAUGU. Consider B26, for which the binding signal is 0.00737 KA relative to UGCAUGU. As for B27, the binding signal is 0.048 KA relative to UGCAUGU.

In the case of B28, the binding signal was 0.0404 KA relative to UGCAUGU. As to B29, the binding signal was 0.0167 KA relative to UGCAUGU. With B30, the binding signal was 0.0128 KA relative to UGCAUGU. As for B31, the binding signal was 0.00351 KA relative to UGCAUGU.
